In US20260137703A1, “2-AMINO-PYRIDO[2,3-D]PYRIMIDIN-7(8H)-ONE AND 7-AMINO-1-PYRIMIDO[4,5-D]PYRIMIDIN-2(1 H)-ONE DERIVATIVES AS EGFR INHIBITORS FOR THE TREATMENT OF CANCER” (Cancer Research Technology Limited, priority 2022, published 2026) one finds IC50 data, which are given here for 13 molecules.

Molecules are shown by their SMILES.

In this test the target is CtermHisTag-mEGFR Triple Mutant (R797S, L858R, T790M) (Homo sapiens, UniProt P00533, C797S/L858R/T790M). The test is described as follows: TR-FRET probe displacement, EGFR triple mutant. The following applies: 1.25 nM EGFR, 100 nM probe, 30 mins room temperature.
Usually IC50 stands for the concentration that gives 50% inhibition. Read a high IC50 as a need for much substance. For `C#Cc1cc(=O)n(-c2ccccc2)c2nc(Nc3ccc(N4CCC(N5CC(F)(CO)C5)CC4)cc3)ncc12` [Example 30, 5-Ethynyl-2-[(4-{4-[3-fluoro-3-(hydroxymethyl)azetidin-1-yl]piperidin-1-yl}phenyl)amino]-8-phenylpyrido[2,3-d]pyrimidin-7-one], the IC50 was less than 20 nM.

Consider `C#Cc1cc(=O)n(-c2ccccc2)c2nc(Nc3ccc(N4CCN(C)CC4)c(CO)c3)ncc12` [Example 31, 5-Ethynyl-2-{[3-(hydroxymethyl)-4-(4-methylpiperazin-1-yl)phenyl]amino}-8-phenylpyrido[2,3-d]pyrimidin-7-one], for which the IC50 is less than 20 nM.

The molecule `C#Cc1cc(=O)n(-c2ccccc2)c2nc(Nc3ccc(N(C)CCN(C)C)c(C)c3)ncc12` [Example 32, 2-[(4-{[2-(Dimethylamino)ethyl](methyl)amino}-3-methylphenyl)amino]-5-ethynyl-8-phenylpyrido[2,3-d]pyrimidin-7-one] came in with an IC50 of less than 20 nM.

`C#Cc1cc(=O)n(-c2ccccc2)c2nc(Nc3ccc(N4CCC(N(C)C)CC4)cc3)ncc12` [Example 33, 2-({4-[4-(Dimethylamino)piperidin-1-yl]phenyl}amino)-5-ethynyl-8-phenylpyrido[2,3-d]pyrimidin-7-one] returned an IC50 of less than 20 nM.

In the case of `C#Cc1cc(=O)n(-c2ccccc2)c2nc(Nc3ccc(N(C)CCN(C)C)cc3)ncc12` [Example 34, 2-((4-((2-(Dimethylamino)ethyl)(methyl)amino)phenyl)amino)-5-ethynyl-8-phenylpyrido[2,3-d]pyrimidin-7(8H)-one], the IC50 was less than 20 nM.

The molecule `C#Cc1cc(=O)n(-c2ccccc2)c2nc(Nc3ccc(N4CCOCC4)cc3OC)ncc12` [Example 35, 5-Ethynyl-2-((2-methoxy-4-morpholinophenyl)amino)-8-phenylpyrido[2,3-d]pyrimidin-7(8H)-one] displayed an IC50 of less than 20 nM.

With `C#Cc1cc(=O)n(-c2ccccc2)c2nc(Nc3ccc(N(C)C(=O)CCOC)cc3OC)ncc12` [Example 36, N-(4-((5-Ethynyl-7-oxo-8-phenyl-7,8-dihydropyrido[2,3-d]pyrimidin-2-yl)amino)-3-methoxyphenyl)-3-methoxy-N-methylpropanamide], the IC50 was in the range of 20 to 100 nM.

On to `C#Cc1cc(=O)n(-c2ccccc2)c2nc(Nc3ccc(N4CCN(C)CC4)cc3)ncc12` [Example 37, 5-Ethynyl-2-((4-(4-methylpiperazin-1-yl)phenyl)amino)-8-phenylpyrido[2,3-d]pyrimidin-7(8H)-one], for which the IC50 is less than 20 nM.

In the case of `C#Cc1cc(=O)n(-c2ccccc2)c2nc(Nc3ccc(N4CCNC5(CC5)C4)cc3)ncc12` [Example 38, 2-[(4-{4,7-Diazaspiro[2.5]octan-7-yl}phenyl)amino]-5-ethynyl-8-phenylpyrido[2,3-d]pyrimidin-7-one], the IC50 was 20 to 100 nM.

In turn, `C#Cc1cc(=O)n(-c2ccccc2)c2nc(Nc3ccc(N4CCC(N5CC(COC)C5)CC4)cc3)ncc12` [Example 39, 5-Ethynyl-2-[(4-{4-[3-(methoxymethyl)azetidin-1-yl]piperidin-1-yl}phenyl)amino]-8-phenylpyrido[2,3-d]pyrimidin-7-one] yielded an IC50 of less than 20 nM.

`C#Cc1cc(=O)n(-c2ccccc2)c2nc(Nc3ccc(N4CCC(N5CC(C(C)(C)O)C5)CC4)cc3)ncc12` [Example 40, 5-Ethynyl-2-[(4-{4-[3-(2-hydroxypropan-2-yl)azetidin-1-yl]piperidin-1-yl}phenyl)amino]-8-phenylpyrido[2,3-d]pyrimidin-7-one] came in with an IC50 of less than 20 nM.

`C#Cc1cc(=O)n(-c2ccccc2)c2nc(Nc3ccccc3CO)ncc12` [Example 41, 5-Ethynyl-2-{[2-(hydroxymethyl)phenyl]amino}-8-phenylpyrido[2,3-d]pyrimidin-7-one] displayed an IC50 of 100 to 1000 nM.

`C#Cc1cc(=O)n(C)c2nc(Nc3ccc(N(C)CCN(C)C)cc3OC)ncc12` [Example 42, 2-[(4-{[2-(Dimethylamino)ethyl](methyl)amino}-2-methoxyphenyl)amino]-5-ethynyl-8-methylpyrido[2,3-d]pyrimidin-7-one] yielded an IC50 of 100 to 1000 nM.
